{
  "source": "paper PMC4336329",
  "about": "(PLoS ONE, 2015)",
  "note": "The campaign covered roughly 310,000 compounds. About 14,000 (4.5%) showed an effect of 50% or more. The effect is printed as a negative number. Some of the results follow.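 Also: peak tail current of the secondary pulse compared with the same well before compound.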",
  "data": [
    {"molecular_target": "human ether-à-go-go-related gene (hERG) potassium channel (human, UniProt Q12809)", "sequence (Q12809 whole entry, looked up)": "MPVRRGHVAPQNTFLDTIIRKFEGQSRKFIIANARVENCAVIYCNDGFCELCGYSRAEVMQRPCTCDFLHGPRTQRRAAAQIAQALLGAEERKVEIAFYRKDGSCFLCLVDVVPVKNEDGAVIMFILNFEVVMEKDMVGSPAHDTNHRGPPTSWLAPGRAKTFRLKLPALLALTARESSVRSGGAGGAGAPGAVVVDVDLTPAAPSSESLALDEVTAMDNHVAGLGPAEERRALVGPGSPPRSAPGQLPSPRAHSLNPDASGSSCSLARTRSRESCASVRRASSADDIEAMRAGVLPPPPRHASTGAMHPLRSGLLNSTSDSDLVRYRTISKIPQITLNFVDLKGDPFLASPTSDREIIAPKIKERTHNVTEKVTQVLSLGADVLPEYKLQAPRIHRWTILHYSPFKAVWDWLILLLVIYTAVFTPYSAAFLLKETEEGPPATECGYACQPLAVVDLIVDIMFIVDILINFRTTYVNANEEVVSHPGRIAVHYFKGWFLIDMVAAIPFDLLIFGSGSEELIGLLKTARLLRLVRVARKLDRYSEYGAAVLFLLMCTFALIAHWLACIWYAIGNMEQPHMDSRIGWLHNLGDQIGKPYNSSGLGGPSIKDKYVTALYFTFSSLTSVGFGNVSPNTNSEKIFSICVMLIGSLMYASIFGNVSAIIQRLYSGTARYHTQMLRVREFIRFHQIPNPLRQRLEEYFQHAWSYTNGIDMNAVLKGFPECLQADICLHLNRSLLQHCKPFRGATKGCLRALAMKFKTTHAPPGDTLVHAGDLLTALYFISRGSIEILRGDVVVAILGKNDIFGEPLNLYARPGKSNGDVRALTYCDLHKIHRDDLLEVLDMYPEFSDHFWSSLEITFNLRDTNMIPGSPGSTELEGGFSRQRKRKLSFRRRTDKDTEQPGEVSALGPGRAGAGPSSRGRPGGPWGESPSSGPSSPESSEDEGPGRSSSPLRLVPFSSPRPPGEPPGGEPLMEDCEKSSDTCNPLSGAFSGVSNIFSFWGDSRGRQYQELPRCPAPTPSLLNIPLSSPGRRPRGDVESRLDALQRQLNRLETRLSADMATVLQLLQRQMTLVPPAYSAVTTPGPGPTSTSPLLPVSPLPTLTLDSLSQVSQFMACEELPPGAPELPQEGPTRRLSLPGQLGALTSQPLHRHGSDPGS", "assay": "primary screen, population patch clamp on CHO cells stably expressing hERG", "units": {"hERG current change (%, negative = inhibition) at 10uM": "%"}, "values": [
      {"smiles": "CC(=O)NC12CC3CC(C1)CC(C(=O)N1CCN(C(=O)c4ccco4)CC1)(C3)C2", "hERG current change (%, negative = inhibition) at 10uM": -15.1},
      {"smiles": "Cc1cc(C(=O)COC(=O)c2ccncc2)c(C)n1Cc1ccco1", "hERG current change (%, negative = inhibition) at 10uM": 13.7},
      {"smiles": "Cc1noc(C(=O)Nc2ccc(F)c(Cl)c2)c1Cl", "hERG current change (%, negative = inhibition) at 10uM": 8.86},
      {"smiles": "Cl.Oc1ccc(Nc2nc(N3CCCC3)c3ccccc3n2)cc1", "hERG current change (%, negative = inhibition) at 10uM": -70.2},
      {"smiles": "CCCCNc1ncnc2c1cnn2-c1ccccc1", "hERG current change (%, negative = inhibition) at 10uM": -20.8},
      {"smiles": "Cc1ccc(C(NC(=O)Nc2ccccn2)C(Cl)(Cl)Cl)cc1F", "note": "(centres unmarked)", "hERG current change (%, negative = inhibition) at 10uM": 24.1},
      {"smiles": "CC(CCc1ccccc1)NC(=O)CCC(=O)N1CCC(C(N)=O)CC1", "note": "(centres unmarked)", "hERG current change (%, negative = inhibition) at 10uM": 13.8},
      {"smiles": "COc1ccc(N2CCN(C(CNC(=O)c3ccco3)c3ccco3)CC2)cc1", "note": "(centres unmarked)", "hERG current change (%, negative = inhibition) at 10uM": -6.08},
      {"smiles": "Cc1cccc(CCNC(=O)C2CCC(=O)N(Cc3ccccc3F)C2)n1", "note": "(centres unmarked)", "hERG current change (%, negative = inhibition) at 10uM": 12.2},
      {"smiles": "CC1=C(C(=O)OCc2ccccc2)C(c2ccccc2Cl)NC(=O)N1C", "note": "(centres unmarked)", "hERG current change (%, negative = inhibition) at 10uM": -11.9},
      {"smiles": "CC1=NN(c2ccccc2)C(=O)C1/C=C1/NC(=S)NC1=O", "note": "(centres unmarked)", "hERG current change (%, negative = inhibition) at 10uM": 16},
      {"smiles": "COc1ccc(NC(=O)CSc2nn3c(=O)c(C)nnc3s2)cc1", "hERG current change (%, negative = inhibition) at 10uM": 13.1},
      {"smiles": "O=[N+]([O-])c1ccc(CSC2=NCCS2)cc1", "hERG current change (%, negative = inhibition) at 10uM": -15.3},
      {"smiles": "COc1ccc(/C=C2\\SC(=O)N(CCNC(=O)CCS(=O)(=O)c3ccc(C)cc3)C2=O)cc1", "hERG current change (%, negative = inhibition) at 10uM": -0.333},
      {"smiles": "COc1ccc(N(CC(=O)Nc2nc3ccc(C)cc3s2)S(=O)(=O)c2c(C)nn(C)c2C)cc1", "hERG current change (%, negative = inhibition) at 10uM": -16.7},
      {"smiles": "CC(C)(C)NC(=O)NCc1ccco1", "hERG current change (%, negative = inhibition) at 10uM": 8.48},
      {"smiles": "CCCCN(CCCNC(=O)CN1C(=O)COc2ccc(S(=O)(=O)N3CCC(C)CC3)cc21)Cc1ccccc1", "hERG current change (%, negative = inhibition) at 10uM": -76.6},
      {"smiles": "CC(NCCc1ccc(S(N)(=O)=O)cc1)C(=O)NCc1ccccc1.O=C(O)C(=O)O", "note": "(centres unmarked)", "hERG current change (%, negative = inhibition) at 10uM": -37.5},
      {"smiles": "NC(=O)c1cc([N+](=O)[O-])c(Cl)cc1NCc1ccccn1", "hERG current change (%, negative = inhibition) at 10uM": -22.5},
      {"smiles": "CCOC(=O)C1=C(C)N(CC(C)C)C(=O)/C1=C\\c1ccc(OCC(=O)Nc2ccccc2)cc1", "hERG current change (%, negative = inhibition) at 10uM": -9.9},
      {"smiles": "CCCCn1c(N)c(N(CCC(C)C)C(=O)c2ccc3ccccc3c2)c(=O)[nH]c1=O", "hERG current change (%, negative = inhibition) at 10uM": 25},
      {"smiles": "CCOc1cc(C)c(C(C)C)cc1S(=O)(=O)N1CC(C)OC(C)C1", "note": "(centres unmarked)", "hERG current change (%, negative = inhibition) at 10uM": -4.66},
      {"smiles": "COc1ccc(C(=O)NCC(=O)OCC(=O)NCc2cccs2)cc1", "hERG current change (%, negative = inhibition) at 10uM": 10.9},
      {"smiles": "Cc1ccc(Nc2ncccc2C(=O)O)cc1C", "hERG current change (%, negative = inhibition) at 10uM": 7.47},
      {"smiles": "Cc1cc(C)c2nc(N3CCCC(C(=O)NC4CCCC4)C3)sc2c1", "note": "(centres unmarked)", "hERG current change (%, negative = inhibition) at 10uM": 6.33},
      {"smiles": "CCN(CC)S(=O)(=O)c1cc(NC(=O)CO/N=C(\\N)c2ccccc2Cl)ccc1C", "hERG current change (%, negative = inhibition) at 10uM": -19.8},
      {"smiles": "CN(C)S(=O)(=O)c1ccc(-c2csc(N/N=C/c3ccc(O)cc3)n2)cc1", "hERG current change (%, negative = inhibition) at 10uM": -0.953},
      {"smiles": "Cl.Fc1ccc(CN2C3=NCCN3c3ccccc32)cc1", "hERG current change (%, negative = inhibition) at 10uM": -54.9},
      {"smiles": "Cc1c(NC(=O)CSc2ncnc3c2cnn3-c2ccccc2)c(=O)n(-c2ccccc2)n1C", "hERG current change (%, negative = inhibition) at 10uM": -64.1},
      {"smiles": "COc1ccc(-n2nc3c(c2NC(=O)C2CC2)CS(=O)C3)cc1", "note": "(centres unmarked)", "hERG current change (%, negative = inhibition) at 10uM": 5.03},
      {"smiles": "CCN1CCN(Cc2c(C(=O)N/N=C(\\C)c3ccc(Cl)c(Cl)c3)nnn2-c2nonc2N)CC1.Cl", "hERG current change (%, negative = inhibition) at 10uM": -17.4},
      {"smiles": "O=C(Cc1c(F)cccc1Cl)Nc1nccs1", "hERG current change (%, negative = inhibition) at 10uM": 8.07},
      {"smiles": "O=C(CSc1ccccc1)Nc1cccc(S(=O)(=O)N2CCOCC2)c1", "hERG current change (%, negative = inhibition) at 10uM": -25.4},
      {"smiles": "O=C(NCC1CCCO1)C1CC(=O)N(c2ccc(F)c(Cl)c2)C1", "note": "(centres unmarked)", "hERG current change (%, negative = inhibition) at 10uM": 2.29},
      {"smiles": "O=C(CCN1C(=O)[C@@H]2Cc3ccccc3CN2C1=O)N[C@H](C(=O)O)c1ccccc1", "hERG current change (%, negative = inhibition) at 10uM": 20.9},
      {"smiles": "Cc1ccc(C(=O)OCC(=O)c2ccc(S(=O)(=O)N3CCCCC3)cc2)o1", "hERG current change (%, negative = inhibition) at 10uM": -20.3},
      {"smiles": "CCN(CC(=O)NCc1ccc(Cl)cc1)C(=O)c1oc2ccccc2c1C", "hERG current change (%, negative = inhibition) at 10uM": -54.5},
      {"smiles": "CC1CCN(c2ccc3nnc(CCC(=O)NCC(C)c4ccccc4)n3n2)CC1", "note": "(centres unmarked)", "hERG current change (%, negative = inhibition) at 10uM": -49.2},
      {"smiles": "Nc1cccc2c1C(=O)N(CCOc1ccccc1F)C2=O", "hERG current change (%, negative = inhibition) at 10uM": 20.2},
      {"smiles": "O=C(Nc1ccc(S(=O)(=O)N2CCCCC2)cc1)C1CCCO1", "note": "(centres unmarked)", "hERG current change (%, negative = inhibition) at 10uM": 1.13},
      {"smiles": "Cn1c(C(=O)NCc2ccco2)cc2c(=O)[nH]c3ccccc3c21", "hERG current change (%, negative = inhibition) at 10uM": -5.19},
      {"smiles": "CCN(C1CCS(=O)(=O)C1)S(=O)(=O)c1cccc([N+](=O)[O-])c1", "note": "(centres unmarked)", "hERG current change (%, negative = inhibition) at 10uM": -3.02},
      {"smiles": "CCCCC(Sc1nc(N)c(NC(=O)c2ccc(OC)cc2)c(=O)[nH]1)C(=O)O", "note": "(centres unmarked)", "hERG current change (%, negative = inhibition) at 10uM": 13.5},
      {"smiles": "O=C(c1cccc(C(=O)N2CCN(c3ccccc3F)CC2)c1)N1CCN(c2ccccc2F)CC1", "hERG current change (%, negative = inhibition) at 10uM": -2.32}
    ]}
  ]
}
